Experimental data published in the antibiotic and cytotoxicity screens of Wong et al. (2023).
Some of the results follow.

Each compound was assayed on HepG2 (assay: cytotoxicity call (relative viability < 0.9)). Conditions: 10 µM.

Row | Compound | cytotoxicity call
1 | COc1ccc(NC(=O)N(C)C[C@@H]2Oc3ccc(NC(=O)Cn4cnnn4)cc3C(=O)N([C@@H](C)CO)C[C@@H]2C)cc1 | inactive
2 | C[C@H]1CCCCO[C@H](CN(C)Cc2ccc(C(F)(F)F)cc2)[C@@H](C)CN([C@@H](C)CO)C(=O)c2cc(NC(=O)Nc3cccc4ccccc34)ccc2O1 | inactive
3 | C[C@@H]1CN([C@H](C)CO)S(=O)(=O)c2ccc(C#CC3(O)CCCC3)cc2O[C@H]1CN(C)C(=O)Nc1ccc(F)cc1 | inactive
4 | C[C@@H]1CCCCO[C@@H](CN(C)C(=O)Nc2ccc(F)cc2)[C@@H](C)CN([C@@H](C)CO)C(=O)c2cc(NC(=O)Cc3ccccc3)ccc2O1 | inactive
5 | C[C@@H]1CN([C@@H](C)CO)C(=O)Cc2cc(NC(=O)NC3CCCCC3)ccc2O[C@H]1CN(C)S(C)(=O)=O | active
6 | Cn1c(CNc2ccccc2)cc(=O)n(C)c1=O | inactive
7 | C[C@@H]1CN([C@H](C)CO)C(=O)CCCn2nncc2CO[C@@H]1CN(C)C(=O)c1cc(-c2ccccc2)on1 | inactive
8 | C[C@H]1CN([C@@H](C)CO)C(=O)c2cc(NC(=O)c3ccncc3)ccc2O[C@H]1CN(C)Cc1ccc(Oc2ccccc2)cc1 | inactive
9 | CC(=O)NCc1nccc(N2CCCC2)n1 | inactive
10 | Cc1ccc(S(=O)(=O)N(C)C[C@@H]2Oc3ccc(NS(=O)(=O)c4c(C)noc4C)cc3C(=O)N([C@@H](C)CO)C[C@@H]2C)cc1 | inactive
11 | C[C@H](CO)N1C[C@H](C)[C@H](CN(C)C(=O)Nc2ccc(F)cc2)OCCCC[C@H](C)Oc2ccc(NS(=O)(=O)c3cccs3)cc2C1=O | inactive
12 | C[C@@H]1CCCCO[C@H](CN(C)C(=O)Nc2cccc3ccccc23)[C@H](C)CN([C@H](C)CO)C(=O)c2cc(NS(=O)(=O)c3cn(C)cn3)ccc2O1 | active
13 | C[C@H]1CN([C@@H](C)CO)C(=O)c2cccc(NS(=O)(=O)c3cn(C)cn3)c2O[C@H]1CN(C)CC1CC1 | inactive
14 | C[C@H](CO)N1C[C@H](C)[C@H](CN(C)Cc2ccc3c(c2)OCCN3C)OCc2cn(nn2)CCCC1=O | inactive
15 | C[C@@H]1CN([C@@H](C)CO)C(=O)c2cc(NC(=O)Cc3cn(C)c4ccccc34)ccc2O[C@@H]1CN(C)CC1CCCCC1 | inactive
16 | NCc1ccccc1CN1CCOCC1 | inactive
17 | COc1ccc2c3c(n(c2c1)C)[C@H](CO)N(C[C@]13CCN(CC1)C(=O)c1ccncc1)C(=O)c1cnccn1 | inactive
18 | COc1ccc(S(=O)(=O)N(C)C[C@@H]2Oc3ccc(NC(=O)Nc4c(C)noc4C)cc3CC(=O)N([C@@H](C)CO)C[C@@H]2C)cc1 | inactive
19 | CC(C)NC(=O)Nc1ccc2c(c1)C(=O)N([C@H](C)CO)C[C@H](C)[C@H](CN(C)C(=O)C1CCCCC1)OCCCC[C@@H](C)O2 | inactive
20 | C[C@@H]1CCCCO[C@H](CN(C)C(=O)Cc2ccccc2)[C@@H](C)CN([C@@H](C)CO)C(=O)c2cc(NC(=O)NC3CCCCC3)ccc2O1 | inactive

Row | Compound | cytotoxicity call
21 | C[C@@H]1CN([C@@H](C)CO)C(=O)c2cccc(NC(=O)c3cnccn3)c2O[C@H]1CN(C)Cc1ccc(C(=O)O)cc1 | inactive
22 | C[C@@H]1CN([C@@H](C)CO)C(=O)c2cc(C#Cc3ccc(F)cc3)cnc2O[C@H]1CN(C)CC1CCOCC1 | inactive
23 | S=C(c1cccs1)N1CCCC1 | inactive
24 | CC(C)N1C[C@@H](C)[C@H](CN(C)Cc2ccc(Oc3ccccc3)cc2)Oc2c(C(=O)O)cccc2C1=O | inactive
25 | COc1ccc2c(c(Br)c(C(=O)O)n2CCCOc2cccc3ccccc23)c1-c1ccccc1C | inactive
26 | CNC(=O)C[C@@H]1CC[C@@H]2[C@H](COC[C@H](O)CN2C(=O)Nc2cccc(OC)c2)O1 | inactive
27 | CN(C)C(=O)CN1CCC2(CC1)O[C@H](C(=O)NCc1ccccn1)Cn1ccnc12 | inactive
28 | C[C@@H]1CCCCO[C@@H](CN(C)Cc2ccc(C(=O)Nc3ccccc3N)cc2)[C@@H](C)CN([C@H](C)CO)C(=O)c2cc(NS(=O)(=O)c3cccs3)ccc2O1 | active
29 | C[C@H]1CN([C@@H](C)CO)C(=O)c2cccc(NC(=O)c3nc4ccccc4s3)c2O[C@@H]1CN(C)C(=O)Nc1ccc(C(F)(F)F)cc1 | inactive
30 | Cc1cc(C)c2nc(-c3ccccn3)cc(C(=O)Nc3ccc(S(=O)(=O)Nc4onc(C)c4C)cc3)c2c1 | inactive
31 | C[C@@H](NS(=O)(=O)C1CN(C(=O)OCc2ccccc2)C1)C(N)=O | inactive
32 | O=C(C[C@@H]1CC[C@@H]2[C@H](COC[C@@H](O)CN2S(=O)(=O)c2cccc(Cl)c2)O1)N1CCOCC1 | inactive
33 | COc1ccc(CN(C)C[C@@H]2OCCCC[C@@H](C)Oc3ccc(NC(=O)CCC(F)(F)F)cc3C(=O)N([C@H](C)CO)C[C@H]2C)cc1 | inactive
34 | C[C@@H]1CN([C@H](C)CO)C(=O)Cc2cc(NC(=O)Nc3ccc(C(F)(F)F)cc3)ccc2O[C@H]1CN(C)CC1CCCCC1 | active
35 | C[C@H](CO)N1C[C@H](C)[C@H](CN(C)C(=O)C2CCOCC2)Oc2cc(C3=CCCC3)ccc2S1(=O)=O | inactive
36 | COCN(C#N)c1nc(N(C)C)nc(N(C)C)n1 | inactive
37 | Cn1cnc(-c2cc3nccc(Oc4ccc(NC(=S)NC(=O)Cc5ccccc5)cc4F)c3s2)c1 | inactive
38 | Cc1noc(C)c1S(=O)(=O)Nc1ccc2c(c1)CC(=O)N([C@@H](C)CO)C[C@H](C)[C@H](CN(C)CC1CC1)O2 | inactive
39 | N#C/C(=C\c1cccs1)c1csc2ccc(Cl)cc12 | inactive
